Measured values published in PubChem BioAssay AID504706 (National Center for Advancing Translational Sciences (NCATS), 2011).
In all, about 320,000 compounds went through this assay and about 200 (0.062%) were called active. This list was built around the results that the source calls inconclusive (neither active nor inactive); the mix of calls is not that of the screen. Calls follow the shape of the dose curve; as a rule, active = well fitted activation curve with a large enough effect; inconclusive = small, poorly fitted or top-dose-only effect; inactive = no such curve, though single readings can be large or run the other way. Potencies of inconclusive entries are left out as doubtful fits.

Assay: qHTS assay for re-activators of p53 using a Luc reporter; also: nearly all actives have a fitted effect of over 45% in size; as to activity change, positive = activation: % of control where 0% means no effect
Conditions: H1299 p53-A138V BP100-luciferase reporter, luminescence, 24 h; series mostly up to 92.2 µM; activity change, positive = activation: at the top concentration
Summary of the method: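 p53-null H1299 cells stably carrying temperature-sensitive p53-A138V and a BP100-luciferase reporter were pinned with compounds (4-point, 1:5 series) and held 24 hrs at 37 deg C. Luminescence was read 10 min after detection reagent.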
Potency is read from the fitted curve at half-maximal effect; tags tell the direction and shape of the fitted curve.

| SMILES | activity change, positive = activation | Potency |
| --- | --- | --- |
| Cc1cc(Cl)ccc1OC(C)C(=O)Nc1ccc([N+](=O)[O-])cn1 (configuration not stated) | inactive: 8.68% | – |
| COc1ccc(NC(=O)NC[C@@H]2CC[C@@H](Cc3ccc(-c4ccccc4)cc3)O2)cc1 | – | inconclusive [activator, partial curve, poor fit] |
| COC(=O)c1cc(=O)n(Cc2cccs2)c(=Nc2ccc(F)cc2)s1 | inactive: -5.65% | – |
| O=[N+]([O-])c1nn(-c2ccc3c(c2)OCCO3)n(O)c1=NCc1ccc(F)cc1 | – | inconclusive [activator, full curve, poor fit] |
| O=C1CCCCN1CCC(=O)N1CCCC(N2CCN(c3cccc(Cl)c3)CC2)C1 (configuration not stated) | – | inconclusive [activator, partial curve, poor fit] |
| N=c1oc2ccccc2cc1C(=O)NCc1ccccc1 | – | inconclusive [activator, single point] |
| CCOc1ccc(OCc2ccc(C(=O)Nc3cccnc3)cc2)cc1 | – | inconclusive [activator, partial curve, poor fit] |
| CC12CCC(C1)C(C)(C)C2NS(=O)(=O)c1ccc(F)cc1 (configuration not stated) | – | inconclusive [activator, full curve, poor fit] |
| O=C(c1ccc(Cn2c(=S)[nH]c3ccc(N4CCOCC4)cc3c2=O)cc1)N1CCC(N2CCCCC2)CC1 | – | inconclusive [activator, single point] |
| CCCOC(=O)c1ccc(NC(=O)c2ccoc2C)cc1 | – | inconclusive [activator, partial curve, poor fit] |
| Cc1cc(NC(=O)CSc2nc(-c3ccc(Cl)cc3)cs2)no1 | inactive: 8.34% | – |
| Cc1sc2ncnc(N3CCC(C(=O)Nc4nc(-c5cccs5)cs4)CC3)c2c1C | – | inconclusive [activator, partial curve, poor fit] |
| Cc1cccc(CS(=O)(=O)c2ncc(Cl)c(C(=O)NCc3ccc4c(c3)OCO4)n2)c1 | inactive: -31.4% | – |
| O=C(O)CCC(=O)N1N=C(c2c(-c3ccccc3)c3cc(Cl)ccc3[nH]c2=O)CC1c1cccs1 (configuration not stated) | – | inconclusive [activator, single point] |
| CCc1ccc(C(C(=O)NCc2ccc(OC)cc2)N(CCOC)C(=O)Cc2cccs2)cc1 (configuration not stated) | inactive: -8.49% | – |
| Fc1ccc(Nc2nc(-c3cccnc3)cs2)cc1 | inactive: 11.1% | – |
| O=C(NCc1ccco1)/C(=C\c1cccnc1)NC(=O)c1ccccc1F | inactive: -0.0824% | – |
| Cc1ccc(Nc2ncnc3sc(C)c(C)c23)cc1 | inactive: -5.68% | – |
| O=c1cccc2n1Cc1cc3ccccc3nc1-2 | – | inconclusive [activator, partial curve, poor fit] |
| COc1cccc(OCc2cc(C(=O)NC(C)c3cnn(C)c3C)no2)c1 (configuration not stated) | – | inconclusive [activator, partial curve, poor fit] |
| CCC1(C)N=C(c2ccc3c(c2)OCO3)CC(c2ccccc2O)N1 (configuration not stated) | – | inconclusive [activator, partial curve, poor fit] |

| SMILES | activity change, positive = activation | Potency |
| --- | --- | --- |
| CC(C)Sc1nc2ccc(N3C(=O)C4CCCCC4C3=O)cc2s1 (configuration not stated) | – | inconclusive [activator, partial curve, poor fit] |
| CCC(=O)NCCc1nc2cc(NC(=O)COc3ccccc3)ccc2n1C | – | inconclusive [activator, partial curve, poor fit] |
| CC(C)(C)NC(=O)CN(C(=O)CCC(=O)Nc1nccs1)c1cccc(C(F)(F)F)c1 | – | inconclusive [activator, single point] |
| Cc1c(NC(=S)N/N=C/c2cccc(O)c2)c(=O)n(-c2ccccc2)n1C | inactive: 9.11% | – |
| COc1ccc(-n2ncc3c(N4CCCc5ccccc54)ncnc32)cc1 | – | inconclusive [activator, partial curve, poor fit] |
| CCc1cc2c(=O)nc3n(c2s1)Cc1ccccc1/C3=C(/O)c1ccc(F)cc1 | – | inconclusive [activator, full curve, poor fit] |
| CC(=O)c1ccc(N/C=C\C(=O)c2ccc(C)cc2)cc1 | – | inconclusive [activator, single point] |
| CC1CCc2c(sc(NC(=O)c3ccco3)c2C(=O)O)C1 (configuration not stated) | – | inconclusive [activator, full curve, poor fit] |
| COc1ccccc1N/C=C1/Sc2cc(Cl)ccc2NC1=O | inactive: -2.46% | – |
| COc1ccc(NC(=O)c2c(Cl)n(C)c3ccccc23)cc1 | – | inconclusive [activator, single point] |
| Nc1nonc1-n1nnc(C(=O)N/N=C/c2ccc(OCc3ccccc3F)cc2)c1CN1CCCCC1 | – | inconclusive [activator, full curve, poor fit] |
| Nc1nnc(CCCCCc2nnc(N)s2)s1 | inactive: 0.464% | – |
| O=C(CCS(=O)(=O)c1ccccc1)NC1CCCCC1 | – | inconclusive [activator, partial curve, poor fit] |
| Cc1ccc(Nc2ccc([N+](=O)[O-])cn2)cc1Cl | – | inconclusive [activator, single point] |
| O=C(NCCc1ccccc1)c1cc2ncc(Br)cn2n1 | – | inconclusive [activator, partial curve, poor fit] |
| O=[N+]([O-])c1ccccc1N/N=C1\CCc2ccccc21 | – | inconclusive [activator, single point] |
| COC(=O)Cc1csc(Nc2ccc(Cl)cc2)n1 | – | inconclusive [activator, partial curve] |
| O=C(Nc1sc2c(c1C(=O)O)CCC2)c1ccccc1 | – | inconclusive [activator, partial curve, poor fit] |
| COc1cccc(NC(=O)c2ccccc2)c1 | – | inconclusive [activator, full curve, poor fit] |
| Cc1nn(C)c(C)c1C(C)NC(=O)c1cc(COc2ccc(F)c(F)c2)on1 (configuration not stated) | – | inconclusive [activator, partial curve] |
| CC(=O)c1ccc(NC(=O)C2CC(c3ccc(F)cc3)=NO2)cc1 (configuration not stated) | – | inconclusive [activator, partial curve, poor fit] |
